# Reference: PubChem BioAssay AID504832 (National Center for Advancing Translational Sciences (NCATS), 2011)
# Out of some 310,000 compounds screened, about 18,000 (5.8%) were called active. Inconclusive means that the source gave no clear call. Such entries were picked first, then a sample of the others. The call rests on the fitted dose curve; in most records, active means well fitted inhibition curve with a large enough effect; inconclusive means small, poorly fitted or top-dose-only effect, or another doubt; inactive means no such curve, though single readings can be large or run the other way. No potency is given beside an inconclusive call; the fits are too rough.
# Test: Primary qHTS for delayed death inhibitors of the malarial parasite plastid, 48 hour incubation
# Settings: P. falciparum luciferase growth in erythrocytes; series mostly up to 28.7 µM; activity change, negative = inhibition: at the top concentration
# In short: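 Firefly luciferase activity from engineered P. falciparum reports growth; inhibitors lower the luminescent signal. Cultures contained 2% hematocrit erythrocytes at 0.1% final parasitemia.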
# On the % scale 0 is the no-effect control and ±100 the full control effect; potency means the concentration at half of the fitted maximal effect; tags describe the fitted curve by direction and shape.
SMILES,Potency,"activity change, negative = inhibition"
COc1ccc(-c2cc(C3CCN(Cc4cccc(C(F)(F)F)c4)CC3)[nH]n2)cc1,"inconclusive [inhibitor, partial curve]",
Cc1cc(=O)n2nc(N3CCCC(C(=O)NCc4cccc(Br)c4)C3)sc2n1 (stereo not drawn),"inconclusive [inhibitor, partial curve, poor fit]",
CN1C(C(=O)Nc2ccc(C(=O)O)cc2)=C(O)c2ccccc2S1(=O)=O,"inconclusive [inhibitor, single point]",
Nc1nnc(-c2cn(-c3ccccc3)nc2-c2ccccc2)o1,"inconclusive [inhibitor, single point]",
CC(C)c1ccc(O)c(NC(=O)c2cncc(Br)c2)c1,"inconclusive [inhibitor, partial curve]",
COc1ccc(C2c3c(oc4ccc(Cl)cc4c3=O)C(=O)N2CCN2CCOCC2)cc1 (stereo not drawn),"inconclusive [inhibitor, partial curve]",
Cc1noc(C)c1CSc1nnc(C)c(=O)[nH]1,,inactive: -15.9%
O=C(COc1ccc(Cl)cc1)NCCCNC(=O)c1ccccn1,"inconclusive [inhibitor, partial curve, poor fit]",
O=C(Nc1ccccc1)N1CCN(C2c3ccccc3-c3ccccc32)CC1,active: 2.62 µM,
Cc1ccc(S(=O)(=O)N2CC(C(=O)O)=CC[C@H]2c2ccc(Cl)cc2)cc1,,inactive: 15%
CCn1c(=O)c2cc(C(=O)N3CCN(C(=O)c4ccco4)CC3)sc2c2ccccc21,"inconclusive [inhibitor, single point]",
CCOCc1cnc(C)nc1NCC(=O)c1c(C)[nH]c2ccccc12,active: 2.08 µM,
Cc1ccc(CNc2ncnc3cc(Cl)ccc23)cc1,"inconclusive [inhibitor, single point]",
COC(=O)c1cn(C(=O)c2cc(Br)ccc2Cl)c2ccccc12,"inconclusive [inhibitor, partial curve, poor fit]",
COc1cc(CNCC(C)C)cc(Br)c1OCC(=O)Nc1ccccc1,active: 9.28 µM,
CC(C)C(=O)c1cn(Cc2ccc(C#N)cc2)c2ccccc12,"inconclusive [inhibitor, single point]",
CCOc1ccc(Cl)cc1S(=O)(=O)N1CCCC1,"inconclusive [inhibitor, partial curve, poor fit]",
CCCC(=O)Nc1ccc2c(c1)nc(CCNC(=O)c1ccco1)n2C,"inconclusive [inhibitor, full curve, poor fit]",
Cn1cc(CN2CCCC(C(=O)Nc3ccc(-c4cccc(F)c4)cc3)C2)cn1 (stereo not drawn),"inconclusive [inhibitor, single point]",
O=C1NCC(COCc2ccccc2)O1 (stereo not drawn),,inactive: 12.9%
O=C1c2ccccc2-n2c1nc1ccccc1c2=O,active: 0.329 µM,
O=C1CN(C(=O)Cn2ncc(Cl)c(Cl)c2=O)c2ccccc2N1,,inactive: -4.74%
CCC(=O)N1CCc2cc(S(=O)(=O)NC(C(=O)Nc3cccc(C)n3)C(C)C)ccc21 (stereo not drawn),"inconclusive [inhibitor, full curve, poor fit]",
CCN(CC)CC(=O)NN=C(c1ccccc1)c1ccccc1,,inactive: -11.8%
Cn1cccc1/C=C1\SC(=O)N(CC(=O)Nc2ccc(Cl)cc2)C1=O,"inconclusive [inhibitor, single point]",

SMILES,Potency,"activity change, negative = inhibition"
CCN(CC)S(=O)(=O)c1ccc2c(c1)nc(CCC(=O)O)n2C,,inactive: -12.9%
O=S(=O)(c1ccccc1)c1nc(-c2ccccc2)oc1NCc1cccnc1,,inactive: 2.77%
Nc1nc2[nH]cc(CCc3ccc(C(=O)NC(CCC(=O)O)C(=O)O)cc3)c2c(=O)[nH]1 (stereo not drawn),active: 0.675 µM,
COc1cc(C(=O)NCC(C)(C)CNC(=O)c2cc(OC)c(OC)c(OC)c2)cc(OC)c1OC,"inconclusive [inhibitor, single point]",
COc1cc(OC)cc(C(=O)NC(C(=O)NNC(=O)c2cc(Cl)ccc2OC)C(C)C)c1 (stereo not drawn),"inconclusive [inhibitor, partial curve, poor fit]",
Cc1ccc(-n2nc3c(=O)n(CCCC(=O)NCc4ccccc4Cl)nc(C)c3c2C)cc1,"inconclusive [inhibitor, partial curve]",
Cc1n[nH]c(=O)c2c(NC(=O)COC(=O)c3ncc(Cl)c(Cl)c3Cl)oc(C)c12,,inactive: 77.2%
Cc1nnc(SCC(=O)N2c3ccccc3CC2C)[nH]c1=O (stereo not drawn),,inactive: 0.122%
COc1ccc(NC(=O)c2cc(=O)[nH]c3ccccc23)cc1,,inactive: 2.36% [at 0.00184 µM]
COc1ccccc1N1CCN(C(c2ccccc2)c2nnnn2CCc2ccccc2)CC1 (stereo not drawn),active: 10.4 µM,
O=c1c2ccccc2c(-c2ccc(Br)cc2)nn1Cc1ccccc1,"inconclusive [inhibitor, partial curve]",
Cc1cccc(NC(=O)c2nc[nH]c2C(=O)N2CCC(C)CC2)c1,"inconclusive [inhibitor, single point]",
CCCCNc1c(-c2ccc(OC)c(SC3CCCCC3)c2)nc2cnccn12,active: 10.4 µM,
CCOC(=O)C1=CN(CC2CCCO2)C=C(C(=O)OCC)C1c1ccccc1C(F)(F)F (stereo not drawn),active: 8.28 µM,
Cc1ccn2cc(CNC(=O)c3cccs3)nc2c1,,inactive: 6.56%
CCc1cc(C(=O)N(CC(C)C)c2c(N)n(Cc3ccccc3)c(=O)[nH]c2=O)sc1C,"inconclusive [inhibitor, single point]",
CCc1c(C)nc2cc(-c3cc(OC)cc(OC)c3)nn2c1N1CCN(CCN2CCOCC2)CC1,active: 1.31 µM,
COCCC(=O)N1CCC(Oc2ccc(C(=O)NCCc3ccccn3)cc2)CC1,,inactive: 0%
COCCNC(=O)/C(C#N)=C/c1nc(N(C)C)n(-c2ccc(F)cc2)c1Cl,"inconclusive [inhibitor, single point]",
O=C(Nc1c2c(nn1-c1ccccc1)CS(=O)C2)c1ccc(Br)o1 (stereo not drawn),,inactive: 14%
Cn1cc(CN2CCCC(C(=O)c3ccc(-c4ccccc4)cc3)C2)cn1 (stereo not drawn),"inconclusive [inhibitor, single point]",
C/C(=C\C(=S)Nc1ccccc1)Nc1cccc2ccccc12,,inactive: -8.46%
Cc1cc(C)cc(N(CC(=O)Nc2ccc(C(F)(F)F)cc2)S(=O)(=O)c2c(C)[nH]c(=O)[nH]c2=O)c1,active: 14.7 µM,
CC(C)CC(=O)Nc1nc2ccc(S(=O)(=O)N3CCOCC3)cc2s1,"inconclusive [inhibitor, partial curve, poor fit]",
O=C(O)c1cc(Cl)c(Cl)cc1C(=O)N1CCOCC1,"inconclusive [inhibitor, single point]",

SMILES,Potency,"activity change, negative = inhibition"
CCOc1ncc(S(=O)(=O)N2CCN(CC)CC2)cc1C(=O)O,,inactive: 10.3%
CCc1cccc(C)c1NC(=O)CCN1C(=O)NC(C)(C)C1=O,,inactive: 8.51%
COc1ccccc1-c1nnc(SC/C(O)=C(\C#N)c2nc3ccccc3[nH]2)n1C1CCCCC1,"inconclusive [inhibitor, partial curve]",
COc1ccc(-c2csc(C3=C(O)CN(C(C)C)C3=N)n2)cc1OC,active: 10.4 µM,
CN(C1CCCCC1)S(=O)(=O)c1ccc(NC(=S)NC(=O)c2cccs2)cc1,"inconclusive [inhibitor, single point]",
Cc1c(NCc2ccncc2)cccc1C(=O)O,,inactive: 0.232%
O=C(NNC1=Nc2ccccc2SC1)c1ccc(Cl)cc1,"inconclusive [inhibitor, partial curve]",
CC1(C)Oc2ccc3ccc(=O)oc3c2/C(=C/Nc2ccc(O)cc2)C1=O,"inconclusive [inhibitor, partial curve]",
Cc1cccc(/C=N/NC(=O)Cc2cccs2)c1,,inactive: 38.6%
O=C(NC1CC1)C1=C[C@@H](c2ccc(Br)cc2)C[C@@H](OCc2ccc(CO)cc2)O1,,inactive: 34.7%
O=C(CNc1cc(S(=O)(=O)N2CCOCC2)ccc1NCC1CCCO1)Nc1ccccc1F (stereo not drawn),"inconclusive [inhibitor, partial curve, poor fit]",
Cn1c(NCc2cccnc2)nc2c1c(=O)n(Cc1ccccc1F)c(=O)n2C,"inconclusive [inhibitor, partial curve]",
Cc1c(OCC(=O)NCc2ccncc2)ccc2c3c(c(=O)oc12)CCC3,"inconclusive [inhibitor, single point]",
COc1ccc(C(C)=O)cc1COc1cccc2c1OC(C)(C)C2,,inactive: -0.222%
CN1CCN(CCCNC(=O)c2ccc3c(=O)n(CCc4ccccc4)c(=O)[nH]c3c2)CC1,"inconclusive [inhibitor, single point]",
CCN(CC)c1ccc2c(c1)OC(N)=C(C#N)C2c1cccnc1 (stereo not drawn),"inconclusive [inhibitor, partial curve, poor fit]",
O=C(CCNc1ccccc1)c1cccc([N+](=O)[O-])c1,,inactive: 32.8%
COc1ccccc1N1CC(C(=O)OCC(=O)Nc2c(C)cccc2C)CC1=O (stereo not drawn),,inactive: 17.2%
N#Cc1ccc(C(=O)Nc2nc(-c3cccs3)c(C(=O)C(F)(F)F)s2)cc1,"inconclusive [inhibitor, partial curve, poor fit]",
CCCCn1c(N)c(N(CC)C(=O)c2ccc([N+](=O)[O-])c(C)c2)c(=O)[nH]c1=O,,inactive: 4.87%
NC(=O)c1ccccc1OCc1nnc(-c2ccccc2Br)o1,,inactive: 7.73%
CCN(CC)CCNc1ncnc2c1sc1nc(N3CCOCC3)c3c(c12)CCCC3,active: 9.28 µM,
C/C(=N\NC(=O)c1cc(-c2ccco2)nc2ccccc12)c1cccnc1,"inconclusive [inhibitor, single point]",
